Reference: PMC4336329 (PLoS ONE, 2015)
The campaign covered roughly 310,000 compounds. About 14,000 (4.5%) showed an effect of 50% or more. The effect is printed as a negative number. The list shows a part of the results.

These compounds were tested against human ether-à-go-go-related gene (hERG) potassium channel (human, UniProt Q12809) (assay: primary screen, population patch clamp on CHO cells stably expressing hERG).
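Note: peak tail current of the secondary pulse compared with the same well before compound.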

Sequence of human ether-à-go-go-related gene (hERG) potassium channel (Q12809 whole entry, looked up): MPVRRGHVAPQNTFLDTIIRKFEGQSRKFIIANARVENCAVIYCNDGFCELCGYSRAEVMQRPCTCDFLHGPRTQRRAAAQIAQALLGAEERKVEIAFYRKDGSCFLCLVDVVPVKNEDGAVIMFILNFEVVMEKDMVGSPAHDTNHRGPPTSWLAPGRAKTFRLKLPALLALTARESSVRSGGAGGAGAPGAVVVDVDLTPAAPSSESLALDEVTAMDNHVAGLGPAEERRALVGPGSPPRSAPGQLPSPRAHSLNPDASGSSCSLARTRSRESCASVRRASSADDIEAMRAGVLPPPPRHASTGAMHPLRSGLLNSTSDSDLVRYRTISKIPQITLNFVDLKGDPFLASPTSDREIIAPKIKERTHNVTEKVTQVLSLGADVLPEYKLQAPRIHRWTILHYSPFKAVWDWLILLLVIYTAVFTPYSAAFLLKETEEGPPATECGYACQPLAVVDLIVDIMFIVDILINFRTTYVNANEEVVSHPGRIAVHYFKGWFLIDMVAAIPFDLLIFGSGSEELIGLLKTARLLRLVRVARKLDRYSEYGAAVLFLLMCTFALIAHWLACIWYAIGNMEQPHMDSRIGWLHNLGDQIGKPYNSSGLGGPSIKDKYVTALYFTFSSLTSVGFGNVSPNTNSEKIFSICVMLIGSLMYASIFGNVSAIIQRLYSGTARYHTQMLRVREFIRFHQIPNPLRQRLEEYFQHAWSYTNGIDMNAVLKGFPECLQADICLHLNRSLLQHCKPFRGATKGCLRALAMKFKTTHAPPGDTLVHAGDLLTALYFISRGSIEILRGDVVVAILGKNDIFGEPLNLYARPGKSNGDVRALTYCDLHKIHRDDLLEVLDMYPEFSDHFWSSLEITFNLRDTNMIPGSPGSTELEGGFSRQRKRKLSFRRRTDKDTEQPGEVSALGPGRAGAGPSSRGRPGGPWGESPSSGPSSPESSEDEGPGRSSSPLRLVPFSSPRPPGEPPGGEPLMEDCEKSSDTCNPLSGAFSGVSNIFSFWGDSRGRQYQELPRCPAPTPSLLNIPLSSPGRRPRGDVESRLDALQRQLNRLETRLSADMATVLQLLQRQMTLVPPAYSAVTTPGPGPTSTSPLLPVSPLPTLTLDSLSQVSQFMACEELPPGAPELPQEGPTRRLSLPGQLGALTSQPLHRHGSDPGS

Row | SMILES | hERG current change (%, negative = inhibition) at 10uM [%]
1 | c1ccc(Cn2nnc3c(NCCN4CCOCC4)ncnc32)cc1 | 7.49
2 | COc1ccc(-c2csc(NC(=O)c3ccccc3S(C)(=O)=O)n2)cc1 | 10.7
3 | CCCC(=O)NNC(=O)Nc1ccccc1 | 19.8
4 | Cc1cc(SCNC(=O)c2ccccc2)nc(C(C)C)n1 | 35.9
5 | COc1ccc(CNc2nc(-c3ccccc3)nc3ccccc23)cc1OC | 18.2
6 | O=C(NCc1ccc2c(c1)OCO2)Nc1ccc2ccccc2c1 | 9.75
7 | C/C(CC(=O)Nc1ccc(OCc2ccccc2)cc1)=N\NC(=O)C(=O)Nc1ccc(C)c(Cl)c1 | 12.9
8 | Cc1ccccc1NCc1nnc2n1CCCCC2 | 13.7
9 | CCCc1cc(C(N)=O)c(NC(=O)c2ccoc2C)s1 | -9.27
10 | Cc1nc2nc(C)c(CCC(=O)N3CCc4ccccc43)c(C)n2n1 | -63.5
11 | C/C(CC(=O)Nc1ccc2c(c1)OCCO2)=N\NC(=O)COc1ccc(C)cc1Br | -36.9
12 | COc1ccc(C(=O)CCNc2cccc(Cl)c2)cc1 | 3.99
13 | CCCN(C1CCS(=O)(=O)C1)S(=O)(=O)c1cc(OC)ccc1OC (centres unmarked) | -2.94
14 | CN(C)c1ccc(C(=O)N(Cc2ccccc2)Cc2ccccc2)cc1 | 9.53
15 | COc1cc(C(=O)N/C(=C\c2cn(C)c3ccccc23)C(=O)NCCCO)cc(OC)c1OC | 23.4
16 | CC(C)(C)C(=O)Nc1nnc(SCC(=O)Nc2nccs2)s1 | 16.2
17 | COC1OC(COC(=O)CNC(=O)OC(C)(C)C)C(O)C(O)C1O (centres unmarked) | 5.13
18 | Cc1cc(Cl)ccc1NC(=S)NCc1ccc(Cl)cc1 | 6.89
19 | COc1ccccc1CNC(=O)CN(CCc1ccccc1)S(C)(=O)=O | -18.3

Row | SMILES | hERG current change (%, negative = inhibition) at 10uM [%]
20 | COc1ccc(-c2[nH]nc3c2C(c2ccncc2)C(C#N)=C(N)O3)cc1 (centres unmarked) | 15.6
21 | COc1ccc(C(C(C(=O)c2ccco2)N2CCOCC2)N2CCOCC2)cc1 (centres unmarked) | 0.33
22 | COc1ccc(N2CCN(S(=O)(=O)c3ccc4c(c3)NC(=O)CC(=O)N4)CC2)cc1 | 13.2
23 | O=C(NCc1cccnc1)[C@@H]1CC=C[C@@H]2CCN(Cc3ccc(Cl)c(Cl)c3)C(=O)[C@@H]21 | -34.6
24 | Cc1ccc(NC(=O)/C=C/C(=O)O)c([N+](=O)[O-])c1 | -67
25 | CCOc1cc(NC(=S)Nc2ccccc2)c(OCC)cc1NC(=O)c1ccc(OC)cc1 | 11.1
26 | Cc1c(C(=O)NCCCN2CCCC2=O)oc2c(Cl)cccc12 | -3.64
27 | O=C(NC1(C(F)(F)F)NC(=O)N(Cc2ccccc2)C1=O)c1cccs1 (centres unmarked) | 0.00138
28 | Nc1nc(NCCCN2CCOCC2)nc(Nc2cccc(Cl)c2)c1[N+](=O)[O-] | -40
29 | C=CCc1cccc(/C=N/n2c(C)nnc2C)c1O | 15.7
30 | CSc1cccc(Nc2ccc(S(=O)(=O)N3CCOCC3)cc2[N+](=O)[O-])c1 | -30.8
31 | CC(=O)c1sc(NC(=O)C2CC(=O)N(Cc3ccco3)C2)nc1-c1ccccc1 (centres unmarked) | -59.4
32 | CCCc1nc2sc3c(c2c(=O)n1NC(=O)CCCl)CCCC3 | 0.756
33 | CC(=O)NC1C(OCc2cccc(Br)c2)OC(COC(C)=O)C(OC(C)=O)C1OC(C)=O (centres unmarked) | -12.4
34 | COc1ccccc1NC(=O)c1ccccc1NS(C)(=O)=O | -1.12
35 | O=C(Nc1ccc(Cl)cc1-c1nc2ccccc2s1)c1ccco1 | 17.6
36 | Cc1ccc(C(=O)CCC(=O)N2CCC(C(N)=O)CC2)s1 | 20.5
37 | COc1cccc(-c2nnc(SCC(=O)N(C(C)C)C(C)C)o2)c1 | 9.35
38 | Cc1nn(-c2ccccc2)c2c1C(c1ccco1)C(C#N)=C(N)O2 (centres unmarked) | 6.04

Row | SMILES | hERG current change (%, negative = inhibition) at 10uM [%]
39 | Cc1ccc(CNS(=O)(=O)CCNC(=O)c2ccccc2)cc1 | -33.5
40 | O=C(CSc1nc2c(sc3ccccc32)c(=O)n1CCCN1CCCC1)NCC1CCCO1 (centres unmarked) | -61.6
41 | Cn1cccc1Cc1nnc(SCC(=O)N2CCN(c3ccccc3)CC2)n1-c1ccc(F)cc1 | -0.751
42 | O=C(Nc1ccc2c(c1)OCO2)c1cccs1 | 20.1
43 | O=C(/C=C/c1ccc(Cl)cc1Cl)OCC(=O)N1CCCC1 | -17.3
44 | CC(=O)Oc1c(C(C)C)cc(N(C(C)=O)c2ccccc2)cc1C(C)C | 2.98
45 | Cc1noc(C)c1-c1nc(CS(=O)(=O)c2ccc(Cl)cc2)no1 | -3.59
46 | Cn1c(SCC(=O)NNC(=O)Nc2ccc(Cl)cc2)nnc1-c1ccccc1 | 7.36
47 | CCOC(=O)Cn1cnc2c(nnn2-c2cccc(OC)c2)c1=O | 9.76
48 | COc1ccc(C(=O)NNS(=O)(=O)c2ccc(C)cc2)cc1 | -9.83
49 | Cc1cc(C)nc(NS(=O)(=O)c2ccc(N=Cc3c(O)n(C)c(=O)n(C)c3=O)cc2)n1 | 11.4
50 | Cc1cc(NC(=O)CSc2nnc(-c3cccnc3)n2Cc2ccccc2)no1 | 10.8
51 | O=S1(=O)CCOC[C@H](CC2CCCCC2)N1Cc1ccc(Cl)cc1 | 7.51
52 | O=C(O)CSc1ccc(Oc2ccc(SCC(=O)O)cc2)cc1 | 8.02
53 | COc1ccc([N+](=O)[O-])cc1N(CC(O)CN1CCCC1)S(=O)(=O)c1ccc(C)cc1 (centres unmarked) | -2.85
54 | CC1CCN(C(=O)COC(=O)C(C)N2C(=O)c3ccccc3C2=O)CC1 (centres unmarked) | -3.43
55 | O=C1c2ccccc2C(Nc2cccnc2)N1Cc1ccccc1Cl (centres unmarked) | -38.8
56 | COC(=O)[C@H](CCSC)NC(=O)Nc1ccc(S(N)(=O)=O)cc1 | 5.25
